In all, about 390,000 compounds went through this assay and about 150 (0.038%) were called active. The inconclusive results got no clear call from the source; some entries with a clear call stand among them for comparison. The call rests on the fitted dose curve; in most records, active means well fitted inhibition curve with a large enough effect; inconclusive means small, poorly fitted or top-dose-only effect; inactive means no such curve, though single readings can be large or run the other way. Potencies of inconclusive entries are doubtful fits and often do not repeat.
What follows are compounds tested against Regulator of G-protein signaling 4 (Homo sapiens) (UniProt P49798) (assay: Inhibitors of Regulator of G Protein Signaling (RGS) 4: qHTS). Conditions: Transcreener GDP fluorescence polarization, RGS4-accelerated GTP hydrolysis; series mostly up to 114 µM.
Sequence of UniProt P49798 (P49798 whole entry, looked up): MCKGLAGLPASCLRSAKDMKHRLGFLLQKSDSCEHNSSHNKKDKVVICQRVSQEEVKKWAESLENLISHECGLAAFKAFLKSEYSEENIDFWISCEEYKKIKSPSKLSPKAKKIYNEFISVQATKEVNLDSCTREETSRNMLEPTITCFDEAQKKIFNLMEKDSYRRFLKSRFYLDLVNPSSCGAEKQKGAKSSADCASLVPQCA
In short: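 MLSMR compounds (23 nl, pin-transferred) preincubated 10 min at room temperature with a 500nM (2x) first reagent, then RGS4 at 900nM (2x) plus Transcreener GDP mix added; fluorescence polarization (620/688 nm) read before and after 90 min at 30 °C.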
Further: nearly all actives have a fitted effect of over 75% in size.
Potency means the concentration at half of the fitted maximal effect; tags describe the fitted curve by direction and shape.

SMILES | Potency
CCOC(=O)c1c(C)oc2c(F)c(F)c(F)c(F)c2c1=O | inactive
Cc1cccc(-c2nsc(SCC(=O)Nc3nccs3)n2)c1 | inconclusive: 56.2 µM [inhibitor, partial curve, poor fit]
COc1ccccc1OCC(O)COC(N)=O (centres undefined) | inactive
CC(C)(C)C(=O)c1sc2nc(-c3cccs3)cc(C(F)(F)F)c2c1N | inconclusive: 79.4 µM [inhibitor, partial curve, poor fit]
CCOC(=O)N1CCc2c(sc(NCc3cccc(F)c3)c2C(=O)Nc2ccc(OC)cc2OC)C1 | inconclusive: 79.4 µM [inhibitor, partial curve, poor fit]
O=C(CC(c1ccccc1)c1ccccc1O)NCc1ccco1 (centres undefined) | inactive
CCN(Cc1nc2ccccc2c(=O)[nH]1)C(=O)COc1ccccc1-c1ccccc1 | inactive
O=C(CCCn1c(=O)c2ccccc2n(Cc2cccc(Cl)c2)c1=O)NCCc1ccc(Cl)cc1 | inconclusive: 50.1 µM [inhibitor, partial curve, poor fit]
CCOc1ccc(CN(C)C(=O)CN2C(=O)NC(c3ccccc3)(c3ccccc3)C2=O)cc1 | inconclusive: 89.1 µM [inhibitor, single point]
C=CCOC(=O)C(=O)/C=C/c1ccc2c(c1)Cc1ccccc1-2 | inconclusive: 17.8 µM [inhibitor, full curve, poor fit]
COc1cc(-c2nnc(SCC(=O)N3CCOCC3)o2)cc(OC)c1OC | inactive
CCc1cc2c(SCC(=O)N3CCCC3=O)ncnc2s1 | inconclusive: 79.4 µM [inhibitor, single point]
O=C(Nc1cccc(-c2cn3c(n2)SCC3)c1)c1ccc2ccccc2n1 | inactive
O=C(NCc1nc2cccnc2n1Cc1ccc(F)cc1)c1ccccc1C(F)(F)F | inactive
Cc1ccccc1Oc1ccc2c(c1)[C@@H]1C[C@H](N(C)C(=O)Nc3cc(Cl)cc(Cl)c3)[C@H]([C@H](C)O)C(=O)N1CC2 | inactive
Cn1c(/C(C#N)=C/c2ccc(O)cc2)nc2ccccc21 | inactive
Cc1noc(-c2ccc(NCc3ccccc3)c([N+](=O)[O-])c2)n1 | inactive
Nc1nc(CN2CCN(c3ccccc3)CC2)nc(N2CCCc3ccccc32)n1 | inactive
CCN1C(C#N)=C(C#N)N=C(C)CC1(C)C | inactive
CNC(=O)c1nnsc1S(=O)(=O)c1ccc(Cl)cc1 | inconclusive: 11.2 µM [inhibitor, full curve, poor fit]
O=C1/C(=C/c2ccco2)SC(=S)N1c1cccnc1 | inconclusive: 44.7 µM [inhibitor, partial curve, poor fit]
Cc1ccccc1-c1cc(C(=O)NCc2ccc3c(c2)OCO3)nn1CC1CC(c2cccc([N+](=O)[O-])c2)=NO1 (centres undefined) | inconclusive: 79.4 µM [inhibitor, single point]

SMILES | Potency
COC(=O)c1c(NC(=O)c2ccc(Br)s2)sc2c1CCC2 | inconclusive: 50.1 µM [inhibitor, partial curve, poor fit]
CCOC(=O)CNc1nnc(SCC(=O)OCC)[nH]c1=O | inconclusive: 17.8 µM [inhibitor, full curve, poor fit]
COC(=O)Nc1ccc(S(=O)(=O)N2CCC(C(=O)N3CCC(C)CC3)CC2)cc1 | inconclusive: 35.5 µM [inhibitor, full curve, poor fit]
O=C(NNc1ccc(Cl)cc1)c1sccc1Cl | inconclusive: 39.8 µM [inhibitor, partial curve, poor fit]
COc1ccc(/C=N/NC(=O)c2ccc(NC(=O)c3cccc([N+](=O)[O-])c3)cc2)c(OC)c1 | inconclusive: 79.4 µM [inhibitor, partial curve, poor fit]
S=c1[nH]c2cc(Cl)c3cccnc3c2o1 | inconclusive: 79.4 µM [inhibitor, partial curve, poor fit]
Cc1ccc(NC(=O)CN2C(=O)N/C(=C/c3ccc(C)o3)C2=O)cc1 | inconclusive: 20 µM [inhibitor, full curve, poor fit]
Cc1ccc2nc(SCC(=O)N3CC(C)OC(C)C3)nc(=O)n2c1 (centres undefined) | inconclusive: 79.4 µM [inhibitor, partial curve, poor fit]
Cc1cc(C)nc(SCCc2ccncc2)n1 | inconclusive: 56.2 µM [inhibitor, partial curve, poor fit]
CC1CN(C(=O)CN2C(=O)NC3(CCCCCC3)C2=O)CC(C)O1 (centres undefined) | inactive
CCOc1ccc(N2C(=O)CC(Sc3nc(CC(C)C)ccc3C#N)C2=O)cc1 (centres undefined) | inconclusive: 79.4 µM [inhibitor, partial curve, poor fit]
COc1ccc(-n2cnc(=S)[nH]c2=S)cc1 | inconclusive: 28.2 µM [inhibitor, full curve, poor fit]
O=C(N/N=C\C=C\c1ccc([N+](=O)[O-])o1)c1cccs1 | inactive
CCOc1ccc(C2NC(=O)C(C#N)=C(S)N2c2ccc(OC)cc2)cc1OC (centres undefined) | inconclusive: 89.1 µM [inhibitor, partial curve, poor fit]
Cc1oc(-c2ccc(Cl)cc2)nc1CN1CCC(C(=O)NCCCN2CCN(c3cccc(Cl)c3)CC2)CC1 | inactive
CC(C)c1nc2sc(C(=O)O)c(N)c2c2c1CCCC2 | inconclusive: 22.4 µM [inhibitor, full curve, poor fit]
Cc1ccc(-n2ncc3c(=O)n(CC(=O)NCc4ccco4)cnc32)cc1 | inactive
Cc1ccc(S(=O)(=O)N2C(=O)c3cccc4cccc2c34)cc1 | inactive
Cc1nn(C(=O)CCCC(=O)NCc2ccccc2)c2ccccc12 | inconclusive: 44.7 µM [inhibitor, partial curve, poor fit]
Cc1ccc(S(=O)(=O)c2nc(S(C)(=O)=O)sc2N2CCC(C(N)=O)CC2)cc1 | inactive
CCOc1ccc(NC(=O)c2c(NCc3ccc(C)o3)sc3c2CCC(C)C3)cc1 (centres undefined) | inconclusive: 35.5 µM [inhibitor, full curve, poor fit]
O=C(CSc1nc2ccc(S(=O)(=O)N3CCOCC3)cc2[nH]1)N1CCOCC1 | inconclusive: 50.1 µM [inhibitor, partial curve, poor fit]
